The list shows a part of the results. The full chains were built here from the parent and the listed change. Inactive controls read about 0.05.
B1: TEV protease; numbered along this chain (parent)
chain: MGESLFKGPRDYNPISSSICHLTNESDGHTTSLYGIGFGPFIITNKHLFRRNNGTLVVQSLHGVFKVKDTTTLQQHLVDGRDMIIIRMPKDFPPFPQKLKFREPQREERICLVTTNFQTKSMSSMVSDTSCTFPSGDGIFWKHWIQTKDGQCGSPLVSTRDGFIVGIHSASNFTNTNNYFTSVPKNFMELLTNQEAQQWVSGWRLNADSVLWGGHKVFMVKPEEPFQPVKEATQL

Variants of: B1
Assay: raw area under fraction-flipped curve 0-4 h after induction (AUC4h, not background-subtracted), DNA-recorder readout of cleavage of the substrate (dimensionless); higher = more cleavage of the substrate by the protease variant
Conditions: temperature: 34 °C; time window: 0-4 h after rhamnose induction
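Note: Bxb1 expression induced with 0.2% (w/v) L-rhamnose at OD600 near 0.5, cultures sampled hourly, flipped fraction per protease–substrate barcode pair counted by paired-end Illumina sequencing.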

Variant	area with substrate EALYFQS	area with substrate ECLYFQS	area with substrate EELYFQS	area with substrate EFLYFQS	area with substrate EGLYFQS	area with substrate EILYFQS	area with substrate ELLYFQS	area with substrate EMLYFQS	area with substrate EPLYFQS	area with substrate EQLYFQS	area with substrate ERLYFQS	area with substrate EVLYFQS	area with substrate EKLYFQS	area with substrate ETLYFQS	area with substrate EDLYFQS	area with substrate EHLYFQS	area with substrate EYLYFQS	area with substrate ESLYFQS	area with substrate EWLYFQS
MGESLFKGPRDYNPISSSICHLTNESDGHTTSLYGIGFGPFIITNKHLFRRNNGTLVVQSLHGVFKVKDTTTLQQHLVDGRDMIIIRMPKDFPPFPQKLKFREPQREERICLVTTNFQTKSMSSMVSDTSCTFPSGDGIFWKHWIQTKDGQCGSPLVSTRDGFIVGIHSASNFTNTNNYFTSVPKNFMELLTNSEAQQWVSGWRLNADSVLWGGHKVFMVKPEEPFQPVKEATQL [Q194S]	0.117	0.14	0.12	0.0997	0.0889	0.0939	0.0942	0.123	0.127	0.113	0.102	0.0947							
MGESLFKGPRDYNPISSSICHLTNESDGHTTSLYGIGFGPFIITNKHLFRRNNGTLVVQSLHGVFKVKDTTTLQQHLVDGRDMIIIRMPKDFPPFPQKLKFREPQREERICLVTTNFQTKSMSSMVSDTSCTFPSGDGIFWKHWIQTKDGQCGSPLVSTRDGFIVGIHSASNFTNTNNYFTSVPKNFMELLYNQEAQQWVSGWRLNADSVLWGGHKVFMVKPEEPFQPVKEATQL [T192Y]	0.138					0.136	0.079			0.0993			0.156	0.127					
MGESLFKGPRDYNPISSSICHLTNESDGHTTSLYGIGFGPFIITNKHLFRRNNGTLVVQSLHGVFKVKDTTTLQQHLVDGRDMIIIRMPKDFPPFPQKLKFREPQREERICLVTTNFQTKSMSSMVSDTSCTFPSGDGIFWKHWIQTKDGQCGSPLVSTRDGFIVGIHSASNFTNTNNYFTSVPKNFMELLTNQEACQWVSGWRLNADSVLWGGHKVFMVKPEEPFQPVKEATQL [Q197C]	0.151	0.116			0.105	0.0937		0.148		0.132		0.0858	0.0894	0.113	0.137	0.141	0.112		
MGESLFKGPRDYNPISSSICHLTNESDGHTTSLYGIGFGPFIITNKHLFRRNNGTLVVQSLHGVFKVKDTTTLQQHLVDGRDMIIIRMPKDFPPFPQKLKFREPQREERICLVTTNFQTKSMSSMVSDTSCTFPSGDGIFWKHWIQTKDGQCGSPLVSTRDGFIVGIHSASNFTNTNNYFTSVPKNFMELLTPQEAQQWVSGWRLNADSVLWGGHKVFMVKPEEPFQPVKEATQL [N193P]	0.0623	0.0699	0.0735		0.0476	0.0582	0.0554		0.0637	0.0655		0.0544	0.0762		0.0696	0.0676		0.0837	
MGESLFKGPRDYNPISSSICHLTNESDGHTTSLYGIGFGPFIITNKHLFRRNNGTLVVQSLHGVFKVKDTTTLQQHLVDGRDMIIIRMPKDFPPFPQKLKFREPQREERICLVTTNFQTKSMSSMVSDTSCTFPSGDGIFWKHWIQTKDGQCGSPLVSTRDGFIVGIHSASNFTNTNNYFTSVPKNFMELLTNQEAQVWVSGWRLNADSVLWGGHKVFMVKPEEPFQPVKEATQL [Q198V]	0.138	0.101			0.0882		0.105	0.123	0.104	0.098					0.153	0.12	0.106		
MGESLFKGPRDYNPISSSICHLTNESDGHTTSLYGIGFGPFIITNKHLFRRNNGTLVVQSLHGVFKVKDTTTLQQHLVDGRDMIIIRMPKDFPPFPQKLKFREPQREERICLVTTNFQTKSMSSMVSDTSCTFPSGDGIFWKHWIQTKDGQCGSPLVSTRDGFIVGIHSASNFTNTNNYFTSVPKNFMELLTNQEAQYWVSGWRLNADSVLWGGHKVFMVKPEEPFQPVKEATQL [Q198Y]	0.108	0.0838	0.129	0.0953	0.108	0.103	0.0765	0.0998	0.0485	0.0997	0.0981	0.0838	0.0936	0.0993	0.114	0.0787		0.093	0.0762
MGESLFKGPRDYNPISSSICHLTNESDGHTTSLYGIGFGPFIITNKHLFRRNNGTLVVQSLHGVFKVKDTTTLQQHLVDGRDMIIIRMPKDFPPFPQKLKFREPQREERICLVTTNFQTKSMSSMVSDTSCTFPSGDGIFWKHWIQTKDGQCGSPLVSTRDGFIVGIHSASNFTNTNNYFTSVPKNFMELLTNQDAQQWVSGWRLNADSVLWGGHKVFMVKPEEPFQPVKEATQL [E195D]	0.0508	0.113	0.114	0.138				0.107	0.111	0.113	0.0886	0.0885	0.0567			0.095	0.129	0.122	0.0596
MGESLFKGPRDYNPISSSICHLTNESDGHTTSLYGIGFGPFIITNKHLFRRNNGTLVVQSLHGVFKVKDTTTLQQHLVDGRDMIIIRMPKDFPPFPQKLKFREPQREERICLVTTNFQTKSMSSMVSDTSCTFPSGDGIFWKHWIQTKDGQCGSPLVSTRDGFIVGIHSASNFTNTNNYFTSVPKNFMELLTNQCAQQWVSGWRLNADSVLWGGHKVFMVKPEEPFQPVKEATQL [E195C]	0.12	0.0986	0.0875			0.0869		0.0924	0.144	0.0904	0.0919	0.0834			0.108	0.111	0.111	0.0912	0.0572
MGESLFKGPRDYNPISSSICHLTNESDGHTTSLYGIGFGPFIITNKHLFRRNNGTLVVQSLHGVFKVKDTTTLQQHLVDGRDMIIIRMPKDFPPFPQKLKFREPQREERICLVTTNFQTKSMSSMVSDTSCTFPSGDGIFWKHWIQTKDGQCGSPLVSTRDGFIVGIHSASNFTNTNNYFTSVPKNFMELLTNQENQQWVSGWRLNADSVLWGGHKVFMVKPEEPFQPVKEATQL [A196N]	0.115	0.0987					0.0941	0.131		0.117	0.0964	0.101	0.112		0.149	0.0817		0.117	0.0845
